The source gives no read counts; variants with many changes may rest on few reads.
B1: LINE1-mini (parent)
chain: GGCAGAGCUCAACACAGCGUGGCAAAGUGGCUGUGGCUAGACUGCC

Variants of: B1
Experiment: self-cleavage, relative activity (ratio to wild type); higher = more cleavage; in vitro, sequencing; the parent is a self-cleaving ribozyme

Variant | self-cleavage
C8A U20G G33A | 0.15
C8G C13A G30U G33C | 0.05
C8A U20C C23U | 0.14
C8G C10A G21U G27C G35A U43C | 0.04
C8G A26C G33A G36C C46U | 0.03
C8G C13A C45A | 0.03
C8G C15G G21C | 0.02
C8G C10A C18U | 0.02
C8G A14G G33C C37U U38G U43A | 0.03
C8G C10U A11C C18A C23U G36U | 0.04
C8A G27U G35U | 0.48
C8A G22U A24G A25G A26U U32C U34G C42U | 0.4
C8A U20A C31G C46A | 0.18
C8A U20A G27U G40A | 0.12
C8G C42A C46A | 0.22
C8A U9G C37G A41U | 0.03
C8G A24G A39C A41U C45U | 0.03
C8G A25U U28A U34G C37U C45A | 0.01
C8G A16G G17U | 0.1
C8A G21U C23A G29U | 0.13
C8G C42G G44A | 0.01
C8G C13G C46G | 0.01
C8A G33U U38A | 0.03
C8A G29A U43A | 0.03

Variant | self-cleavage
C8A U9G A25U G36U | 0.05
C8G A11G G36C | 0.01
C8A G29A U34A C46U | 0.1
C8G C10A G22A | 0.01
C8G A24U G44C | 0.06
C8A U9G C15U A26G | 0.18
C8G C15U U20G G44A C45U | 0.09
C8A U9A G22U A25C | 0.5
C8G A16G G17A U38A | 0.01
C8A U9A A16C C31U | 0.08
C8G A16U C18A G21A G36U U38A | 0.04
C8G C23A A26U | 0.11
C8G C15G G30U | 0.01
C8A G36C C46A | 0.48
C8G C13U C45U | 0.01
C8G C13U C23A C31G A41U | 0.01
C8G A25C A41G C46U | 0.24
C8A U9C U20G G22C G36C | 0.07
C8G C10A G21A G29A U32C | 0.01
C8G C15A G29U G30A | 0.2
C8G C18G U28G | 0.02
C8G A25G G33C C45G | 0.07
C8A U20G A25C G33A | 0.49
C8A U9G G33U A41G | 0.03

Variant | self-cleavage
C8G C13A U28G G36A C42G | 0.02
C8G A11C C42U U43C | 0.01
C8A G35A U38C G40C | 0.04
C8A U20G G29U C37U | 0
C8A U9G C23U | 0.26
C8G C15U G17U U32G G40A G44C | 0.01
C8A U28C G30A G33C | 0.06
C8A U9A G36A | 0.27
C8A U9A U20A G21C | 0.07
C8G C15U U38A | 0.24
C8A U9G U38A C46A | 0.07
C8G C10U U20A A26C | 0.02
C8G C13U C15A C23U G33U | 0.03
C8G A16C G22C G27U | 0.06
C8G C37A G44C | 0.04
C8G C13U A14C G44A | 0.1
C8G A12C G22U | 0.03
C8G A12C A16C A24U | 0
C8A U20C G40U C42A | 0.01
C8A G27U C42G C46A | 0.19
C8G C23U C45U C46A | 0.03
C8A G36A C46A | 0.15
C8G A14G G21U | 0.19
C8A U20C U34C G35A | 0.09

Variant | self-cleavage
C8A G27A C42U | 0.07
C8A G19U U38A A41C G44C | 0.15
C8G A12U U20G C45U | 0.04
C8G C13A U28C | 0.14
C8A U32G C46G | 0.24
C8A G35C C42A | 0.25
C8A U38C A39C | 0.18
C8A G21U U34G A39C | 0.04
C8G A11U A24U A41C | 0.02
C8G C13A U32G G40U | 0.19
C8G A12C G30A U32C G33A G36U U38G | 0
C8G C15A G22U C37U | 0.06
C8A U32C A41U | 0.2
C8G C23A A26G C37A | 0.13
C8G A11C A16G G19U | 0.01
C8A U9G C10G A12C U28A G36U | 0
C8G G17A G36U U38G | 0.03
C8A U20C A26G | 0.03
C8A G22U U38G | 0.07
C8A G21C G27C A39U | 0.14
C8G A11C U34A C42G | 0
C8A G22C U34C | 0.11
C8G C15U A16C | 0.04
C8A U32A G33A | 0.15

Variant | self-cleavage
C8G A12U U34G | 0.05
C8G A16C A24U G36C C42A | 0.01
C8G C23A U28G A41G | 0.42
C8A G21A A26G A39U C42A | 0.31
C8G A14U G17U U20C G33C G36C G40A | 0.34
C8G G17A G22C G33C | 0.02
C8G C18A C31U | 0.01
C8G A16C C18G U38G C46G | 0.04
C8A U20G G40A C45U | 0.19
C8G C18U G21C A24U U28G U38A | 0
C8A G22A U32A G36U C37U | 0.05
C8A U9G G21U C46U | 0.02
C8G A14U U20G | 0.06
C8A U28C A39C C42G | 0.09
C8G A41C G44U C45U | 0.06
C8G G17C A39C C42U | 0.01
C8G C13A A25U G35A | 0.12
C8G C18A G30C C31G U43A | 0.02
C8G A12U C13A G21U G35U | 0.4
C8G A11C C13U G33U G35U G40A | 0.02
C8G A16U G21A | 0.01
C8G C15G G36U | 0.06
C8G C13G A41G C42A | 0.01
C8G C13U A14C U20A A24G A26U G35C | 0.09

Variant | self-cleavage
C8A U9A C18U G22A | 0.23
C8G G17A G21U | 0.01
C8G A11C C23U G40A C42U | 0
C8G C18G G33U | 0.01
C8A U20A G35C | 0.07
C8A U20A C31A C42G | 0.2
C8G C23A U43G | 0.02
C8G A25G C31A | 0.04
C8A G21C G29A C31A | 0.12
C8G C13G A26G G33U C45A | 0.01
C8G A24U C31U | 0.1
C8G A26C G27A C46G | 0.03
C8G A12U G21A U28G | 0.09
C8A U9A G21U G33C C46A | 0.05
C8G C31U G35A A39U | 0.03
C8G C10U A25U A39C U43C C46U | 0.02
C8G C15U U20C A26U C46U | 0.09
C8A U9C C10G C31U G35A | 0.02
C8A G29U G33C G36A | 0.03
C8G A16U A26G G29C | 0.01
C8G C15G G40C A41G | 0.01
C8G A24G G33U U43C | 0.04
C8G C10U G17A G19U U20A C31G C37U C45U C46U | 0
C8G C10G C46A | 0.03

Variant | self-cleavage
C8G A11G C18G C45A | 0.02
C8G G17C C18G U38C | 0.03
C8G C10G C23G G27A G30U G33U | 0.01
C8A G27C G30C G35U | 0.06
C8G A16C G19C | 0.01
C8A G19U G40C U43C C45U | 0.06
C8G C10U C18A C31U | 0
C8A U9C C37G U38C | 0.03
C8G C13A C31U C46G | 0.04
C8G C13G A14U G17C G29A U32A C42U U43G | 0.07
C8G A14C C45A | 0.03
C8G A14G G40U A41U | 0.02
C8A U9G C37G C46U | 0.06
C8G G17A G36C | 0.03
C8A G27A G33A | 0.07
C8A G29U G33A C42U | 0.43
C8A G40A C45G | 0.46
C8G A12U A14G A41C U43A | 0.11
C8G G17A G27A G40U | 0.03
C8G A39C G44A | 0.03
C8G A11U G19U U34G G40U | 0.02
C8G A11C G40A C46U | 0.01
C8G C15A C23A G35C | 0.06

— the RNAGym collection of RNA variant scans (doi:10.7554/elife.90254)
